About 2,300 (1%) of roughly 220,000 compounds were called active. Inconclusive results, whose numbers are uncertain, are shown with a selection of clear calls. Calls come from the whole dose curve; as a rule, active = well fitted inhibition curve with a large enough effect; inconclusive = small, poorly fitted or top-dose-only effect, or effect the other way; inactive = no such curve, though single readings can be large or run the other way. No potency is given beside an inconclusive call; the fits are too rough.
Target: Neuropeptide S receptor (Homo sapiens) (UniProt Q6W5P4)
UniProt Q6W5P4, sequence (Q6W5P4 whole entry, looked up): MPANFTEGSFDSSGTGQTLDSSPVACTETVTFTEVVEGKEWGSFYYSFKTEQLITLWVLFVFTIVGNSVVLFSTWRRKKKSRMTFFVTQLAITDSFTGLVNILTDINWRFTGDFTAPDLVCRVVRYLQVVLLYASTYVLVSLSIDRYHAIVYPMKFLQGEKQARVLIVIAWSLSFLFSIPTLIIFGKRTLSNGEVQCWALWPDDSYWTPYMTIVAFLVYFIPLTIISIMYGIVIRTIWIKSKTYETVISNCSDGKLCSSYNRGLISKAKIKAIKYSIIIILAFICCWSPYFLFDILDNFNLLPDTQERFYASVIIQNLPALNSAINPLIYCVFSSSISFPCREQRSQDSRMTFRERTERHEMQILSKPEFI
Assay: qHTS Assay for Antagonists of the Neuropeptide S Receptor: cAMP Signal Transduction; note: nearly all actives have a fitted effect of over 50% in size
Details: CHO-NPSR cells, cAMP TR-FRET, antagonist mode; activity change, negative = inhibition: at 38.3 µM (top of the series) unless noted
% is set by controls: 0 for no effect and ±100 for the full control effect; potency is the fitted concentration of half-maximal effect; tags give direction and shape of the fitted curve.

SMILES | activity change, negative = inhibition | Potency
Cc1ccc(NC2=C(CC(=O)O)C(c3ccccc3)N(c3ccc(C)cc3)C2=O)cc1 (stereo not given) | inactive: -25% [at 46.1 µM] | –
C=CCSc1nc(-c2ccc3c(c2)OCO3)cc(C(F)(F)F)c1C#N | – | inconclusive [inhibitor, single point]
C=CCNC(=S)N1CCN(c2ccc([N+](=O)[O-])cc2)CC1 | inactive: 5.51% [at 46.1 µM] | –
CC[C@H](C)[C@H](NC(=O)c1ccc(Cl)cc1)C(=O)OCC(=O)c1ccc2c(c1)NC(=O)CO2 | – | inconclusive [inhibitor, single point]
CCN(CC)CCCN1C(=O)C(O)=C(C(=O)c2cc3cccc(OC)c3o2)C1c1ccncc1 (stereo not given) | – | inconclusive [activator, single point]
COc1ccc(-c2csc(NC(=O)c3ccoc3C)n2)cc1 | – | inconclusive [inhibitor, single point]
Cc1nc(SCc2nc3ccccc3[nH]2)c2oc3ccccc3c2n1 | – | inconclusive [inhibitor, single point]
CCCCNc1c2c3c(cccc3n(C)c1=O)C(=O)c1ccccc1-2 | – | inconclusive [inhibitor, single point]
COc1ccc(NC(C)C(=O)N/N=C/c2ccccc2OCc2ccc(Br)cc2)cc1 (stereo not given) | – | inconclusive [inhibitor, partial curve]
CC(C)Oc1ccccc1C1CC(=O)Nc2cc3c(cc21)OCCO3 (stereo not given) | – | inconclusive [activator, single point]
O=C(NC(=S)NC(=O)c1ccccc1F)c1ccccc1F | inactive: 11.3% | –
Fc1ccccc1/C=N/n1cc(-c2ccccc2)[nH]c1=S | – | inconclusive [inhibitor, single point]
CC(C)OC(=O)c1cccnc1N1CCN(c2cccc(Cl)c2)CC1 | – | inconclusive [inhibitor, single point]
CCC1CCCCN1C(=O)CSc1nc2ccsc2c(=O)n1Cc1ccccc1 (stereo not given) | – | inconclusive [inhibitor, single point]
Cc1cc(C)n(Cc2ccccc2)c(=O)c1S(=O)(=O)c1ccccc1 | inactive: -11.5% [at 46.1 µM] | –
CCc1ccc(/C=C(\C)C(=O)c2c(C)cc(C)[nH]c2=O)cc1 | – | inconclusive [activator, partial curve]
C[n+]1nc(Nc2cccc3ccccc23)sc1-c1ccc(C(=O)O)cc1 | inactive: -14.9% | –
Fc1cccc2sc(Nc3nc4cc5c(cc4s3)OCO5)nc12 | inactive: -38.4% | –
O=C(NCC1(c2ccccc2)CCCC1)c1cccc(Br)c1 | – | inconclusive [inhibitor, single point]
COc1ccc(/C=C2\CCC/C(=C\C=N\N(C)C)C2=O)cc1 | inactive: -6.81% | –
Clc1cccc(CSc2nnc(-c3ccccn3)n2Cc2ccco2)c1 | – | inconclusive [inhibitor, single point]
CCOC(=O)c1ccc(NC(=O)c2nc[nH]c2C(=O)N[C@@H](Cc2ccccc2)C(=O)OC(C)(C)C)cc1 | – | inconclusive [inhibitor, single point]
c1ccc(-c2nnc(N3CCN(c4ccccc4)CC3)nc2-c2ccccc2)cc1 | – | inconclusive [activator, single point]

SMILES | activity change, negative = inhibition | Potency
CCc1cc(C(=O)c2ccc(OC)cc2)c(NC(=O)CN2CCCC2)s1 | – | inconclusive [activator, single point]
Cc1cc(C)c(CSc2ncc(-c3ccc([N+](=O)[O-])cc3)[nH]2)c(C)c1 | – | inconclusive [inhibitor, single point]
COc1cc(N/N=C(\C)c2ccc(N)cc2)nc(-c2ccccc2)n1 | inactive: -44.3% | –
Cc1cc(N2C3CCC2CC(O)(c2ccc(F)cc2)C3)nc(-c2ccccc2)n1 (stereo not given) | – | inconclusive [inhibitor, single point]
Cc1ccc(-c2nn(C)c(=O)c3ccccc23)cc1CNS(C)(=O)=O | – | inconclusive [inhibitor, single point]
CCCNCC1C(Oc2ccc(Cl)cc2Cl)C(=O)N1c1cccc(C)c1C (stereo not given) | – | inconclusive [inhibitor, single point]
S=C(N/N=C/c1ccc2c(c1)OCO2)NC1CC2CCC1C2 (stereo not given) | – | inconclusive [activator, partial curve]
NC(=O)c1c(NC(=O)C2COc3ccccc3O2)sc2c1CCN(Cc1ccccc1)C2 (stereo not given) | – | inconclusive [inhibitor, single point]
Oc1ccc(N2CCN(c3ncnc4sc5c(c34)CCC5)CC2)cc1 | – | inconclusive [inhibitor, partial curve, poor fit]
FC(F)(F)c1cccc(Sc2cc(C(F)(F)F)nc(-c3ccccn3)n2)c1 | – | inconclusive [inhibitor, single point]
Nc1c(Cl)ncnc1N/N=C/c1ccnc2ccccc12 | inactive: -4.14% | –
S=C(Nc1ccccn1)c1ccccn1 | – | active: 2 µM
CCCN(CCC)C(=O)CC(c1ccc(F)cc1)c1ccco1 (stereo not given) | – | inconclusive [inhibitor, single point]
Cc1ccc(S(=O)(=O)N2CCOCC2)cc1NC(=O)COC(=O)c1n[nH]c(=O)c2ccccc12 | inactive: 10.6% | –
CN(C)CCCN=c1cc(-c2ccccc2)oc2ccc(Cl)cc12 | inactive: -24.3% | –
CN(C)c1ccc(C=C2C(=O)OC(C)(C(C)(C)C)OC2=O)cc1 (stereo not given) | inactive: -0.209% [at 46.1 µM] | –
N/N=C(/Cc1nc2ccccc2[nH]1)c1ccc([N+](=O)[O-])cc1 | inactive: -6.32% | –
COc1cc(SC#N)ccc1N=Cc1c(C)[nH]n(-c2ccc(C)c(C)c2)c1=O | – | active: 5.01 µM
COc1ccc(C=NCC2OCCc3ccccc32)cc1OC (stereo not given) | inactive: 6.87% | –
Cc1cccc(NC2=NC3(CCCCC3)N=C(N)N2)c1C | – | inconclusive [inhibitor, single point]
O=C1CCC(=O)N1c1ccc(-c2nc3ccccc3s2)cc1 | – | inconclusive [inhibitor, single point]
Cc1cccc(N(CC(=O)NC2CCCC2)C(=O)c2nsc(Cl)c2Cl)c1C | – | inconclusive [activator, single point]
